Source: the supplement of paper PMC3334620
The full ranking holds about 33,000 sequences; the median of “E-score (-0.5 to 0.5)” is about -0.021, and the highest 2% start at about 0.32. Some of the results follow.

These sequences were tested against T1, Zap1 (UniProt P47043) (assay: PBM E-score (8-mer binding enrichment) (E-score (-0.5 to 0.5)); higher = stronger / more preferred TF binding; most listed sequences are background and not binding sites). Details: protein concentration: 200 nM; construct: GST-full length.
T1 sequence: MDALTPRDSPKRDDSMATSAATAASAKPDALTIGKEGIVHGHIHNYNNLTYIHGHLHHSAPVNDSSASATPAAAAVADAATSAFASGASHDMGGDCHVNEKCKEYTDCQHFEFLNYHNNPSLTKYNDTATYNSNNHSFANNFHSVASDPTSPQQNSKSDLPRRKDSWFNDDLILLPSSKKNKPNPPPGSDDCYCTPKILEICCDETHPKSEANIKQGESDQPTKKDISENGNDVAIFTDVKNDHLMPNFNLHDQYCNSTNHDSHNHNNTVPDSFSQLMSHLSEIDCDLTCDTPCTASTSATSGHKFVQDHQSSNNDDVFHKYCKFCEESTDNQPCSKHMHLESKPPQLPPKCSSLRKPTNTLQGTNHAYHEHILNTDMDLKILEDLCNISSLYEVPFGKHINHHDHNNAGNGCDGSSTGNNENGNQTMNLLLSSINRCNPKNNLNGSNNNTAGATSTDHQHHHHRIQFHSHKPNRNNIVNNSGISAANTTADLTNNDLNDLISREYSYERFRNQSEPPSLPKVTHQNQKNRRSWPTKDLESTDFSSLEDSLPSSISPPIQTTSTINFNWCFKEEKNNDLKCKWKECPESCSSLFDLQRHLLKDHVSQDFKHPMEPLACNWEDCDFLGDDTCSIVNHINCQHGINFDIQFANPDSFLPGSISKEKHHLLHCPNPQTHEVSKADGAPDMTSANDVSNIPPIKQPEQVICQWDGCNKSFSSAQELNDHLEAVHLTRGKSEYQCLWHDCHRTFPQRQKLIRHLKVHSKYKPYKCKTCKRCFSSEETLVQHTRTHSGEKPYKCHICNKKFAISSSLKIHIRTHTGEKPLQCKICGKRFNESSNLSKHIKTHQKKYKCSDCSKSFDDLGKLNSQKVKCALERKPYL
In short: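 The E-score, a modified Wilcoxon-Mann-Whitney statistic, was computed by the Universal PBM Analysis Suite for every ungapped eight-base word pooled with its reverse complement. Scans behind it were normalised with masliner after bound GST-tagged yeast transcription factors were detected with fluorescent anti-GST. The proteins, at about 100-200 nM, had been applied to universal all-10-mer Agilent arrays made double-stranded by primer extension.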
With CCTATTTA the “PBM E-score” value was 0.137. In the case of ACCGCACT, the “PBM E-score” value is reported as 0.109. With AGGAACCC the “PBM E-score” value was 0.104. For AATAACAG, the “PBM E-score” value was 0.118. With CAACAGGA the “PBM E-score” value was -0.148. CTACGGGA was tested, and the “PBM E-score” value was -0.137. For ATACCCGC, the “PBM E-score” value was 0.314. AGTCGAAG was tested, and the “PBM E-score” value was -0.26. In the case of ACCTCGCT, the “PBM E-score” value is reported as 0.216. GTTCGAAC was tested, and the “PBM E-score” value was 0.0684. With ATGCTCTC the “PBM E-score” value was -0.152. In the case of ACGTGGCG, the “PBM E-score” value is reported as -0.159. In the case of CTTAAGGA, the “PBM E-score” value is reported as 0.119. TATATAGA was tested, and the “PBM E-score” value was 0.146. For AGGTGCGG, the “PBM E-score” value was -0.111. AAACATTT was tested, and the “PBM E-score” value was 0.148. With AAGACAGA the “PBM E-score” value was 0.0381. For ATCGAAAG, the “PBM E-score” value was 0.134. With GGTGCACA the “PBM E-score” value was -0.187. With AGTATGAG the “PBM E-score” value was 0.105. With AGGCCGCG the “PBM E-score” value was 0.169. In the case of CAAACTCG, the “PBM E-score” value is reported as 0.0533. ATTCGCAC was tested, and the “PBM E-score” value was -0.0943. With CGTTAGAC the “PBM E-score” value was -0.0653. GATAGAGA was tested, and the “PBM E-score” value was -0.186. ACCGGAAT was tested, and the “PBM E-score” value was 0.051. For GAACGGAA, the “PBM E-score” value was -0.0451. With CAAATGAG the “PBM E-score” value was 0.0449. With AAAACGAA the “PBM E-score” value was 0.0788. With AGCCCGTC the “PBM E-score” value was -0.312. In the case of CGGATGCC, the “PBM E-score” value is reported as -0.0188. For AATATTGG, the “PBM E-score” value was 0.097. In the case of AATGGTTG, the “PBM E-score” value is reported as 0.254. GCCACCCC was tested, and the “PBM E-score” value was -0.133. For ACAGACGT, the “PBM E-score” value was -0.0189. CATTGATA was tested, and the “PBM E-score” value was -0.00204. TGAAGTCA was tested, and the “PBM E-score” value was -0.193. CACATATA was tested, and the “PBM E-score” value was 0.0322. In the case of CCCTGGAC, the “PBM E-score” value is reported as 0.0556. In the case of GCCTATTA, the “PBM E-score” value is reported as -0.0352. In the case of CACGACAG, the “PBM E-score” value is reported as -0.072. With CATGAACA the “PBM E-score” value was 0.00617. For AATTCTCC, the “PBM E-score” value was 0.039. CCCTGTCG was tested, and the “PBM E-score” value was 0.0766. For ATCAGGTA, the “PBM E-score” value was 0.276. With AGCCTAAA the “PBM E-score” value was 0.232. With ATAGTGAG the “PBM E-score” value was -0.19. With AAGTGGAC the “PBM E-score” value was -0.0733. With CACATGCA the “PBM E-score” value was 0.16. In the case of ACATGCGC, the “PBM E-score” value is reported as -0.044. With AAGGGGAC the “PBM E-score” value was 0.0133. With TGCTATAA the “PBM E-score” value was -0.0162. AATAAATT was tested, and the “PBM E-score” value was 0.164. In the case of ACGCGCTC, the “PBM E-score” value is reported as -0.174. In the case of CACCATGG, the “PBM E-score” value is reported as -0.124. In the case of GTAATCTA, the “PBM E-score” value is reported as 0.233. ATCTACAA was tested, and the “PBM E-score” value was -0.0277. In the case of AAAAGATC, the “PBM E-score” value is reported as -0.0403. With TGAAGTAA the “PBM E-score” value was -0.0217. For ACTTAACC, the “PBM E-score” value was 0.287. For GAGCTCCC, the “PBM E-score” value was -0.147. With ATCAGGAG the “PBM E-score” value was 0.048. With AGCGCCAC the “PBM E-score” value was -0.148. For CTTATTCC, the “PBM E-score” value was -0.148. AGCTTCAC was tested, and the “PBM E-score” value was 0.019. In the case of CGGCGACC, the “PBM E-score” value is reported as -0.0355. In the case of TACCTGGA, the “PBM E-score” value is reported as 0.197. In the case of ATACAGAC, the “PBM E-score” value is reported as 0.119. With ATAGAGAC the “PBM E-score” value was -0.0562. GAGATAAC was tested, and the “PBM E-score” value was 0.0722. GTAGATCA was tested, and the “PBM E-score” value was 0.0539. With GTAAGTAA the “PBM E-score” value was 0.12. With CGAGTAGC the “PBM E-score” value was -0.154. For ATACAACA, the “PBM E-score” value was 0.0913. In the case of GTAGGCTA, the “PBM E-score” value is reported as -0.134. With AGAGCTCC the “PBM E-score” value was -0.213. ACAAACGG was tested, and the “PBM E-score” value was 0.134. ACTCACTA was tested, and the “PBM E-score” value was 0.0494. ATCGGCAG was tested, and the “PBM E-score” value was -0.203. CTGTGAAC was tested, and the “PBM E-score” value was -0.066. For CTTTAGCC, the “PBM E-score” value was -0.174. GGCCCCTA was tested, and the “PBM E-score” value was 0.0129. In the case of ATAGTGGA, the “PBM E-score” value is reported as -0.0242. For CATCGTGA, the “PBM E-score” value was -0.113. CGTTCGTC was tested, and the “PBM E-score” value was -0.0789. GACAACGA was tested, and the “PBM E-score” value was -0.0883.
